Measurements from article PMC12136788.
This is one part of the list.

T1: UNK ZnF1-6 (called full-length) (human, UniProt Q9C0B0 30-357)
T1 sequence: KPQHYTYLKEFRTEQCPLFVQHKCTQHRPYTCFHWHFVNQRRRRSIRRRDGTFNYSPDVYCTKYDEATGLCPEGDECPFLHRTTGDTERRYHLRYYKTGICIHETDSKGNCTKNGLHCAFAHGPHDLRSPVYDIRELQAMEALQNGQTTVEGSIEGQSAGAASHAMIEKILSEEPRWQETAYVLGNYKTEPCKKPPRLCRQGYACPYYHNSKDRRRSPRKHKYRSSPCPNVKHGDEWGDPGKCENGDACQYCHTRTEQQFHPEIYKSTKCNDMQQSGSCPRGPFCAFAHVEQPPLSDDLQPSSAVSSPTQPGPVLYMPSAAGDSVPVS

B1: ENSG00000107863:be:win_4601|CDS|ENSG00000107863|bound_else_gene|NA|bound_elsewhere_windowed (ssRNA)
RNA: GGGAGUUCUACAGUCCGACGAUCAGAAGUCCUCCCACCUUGAAGAGACAGGCUCUGACUCUGGCACUUUGCUCAGCACGUCUUCCCAGGCCUCCCUGGCAAGGUUUUCCAUGAAGAAAUCAACCAGUCCAGAAACGAAACAUACAACAGAGGAUUGAGCAUCA
B2: chr12:2849045:2849230:-|three_prime_utr|ENSG00000283297|control|control|control (ssRNA)
RNA: GGGAGUUCUACAGUCCGACGAUCCCCAGAGCCCCAGGCUCCAGUGUUCUCAAUCAAUGCUCCUUCAGCAAGAGGCCCUGGGGUAGCAAAAGGACUCUGGCUUCUGCAGAACAGCCUCUCCACCAUCCUCCCAGCCUCAAGCCACAACAGAGGAUUGAGCAUCA
B3: chr12:64147824:64147925:+|3pUTR|ENSG00000196935|unk|FALSE|unique (ssRNA)
RNA: GGGAGUUCUACAGUCCGACGAUCCAUCUCUGUGGUGUCUUUGUUCCUUUCCUUUCAUUCAUCACUACUUUCUCCUUGACAGCUAGCUUGCAUUAAAUAAUGUGAAACUUUUACCUUUAAAAUAUUUUUUUAUCUCACUUUCAUCAACAGAGGAUUGAGCAUCA
B4: chr5:72207927:72208036:+|3pUTR|ENSG00000131711|msi1_unk|total|mutant (ssRNA)
RNA: GGGAGUUCUACAGUCCGACGAUCUUUUUUUUUUUUUUUUUUUGCUAUGGGAUUUAAUGGGAAAAAUAUGUAAAAACUGUCACCCGUCAGCUGGCUCUUUUUCCUAUGAAAUCUAUCAGUACCUUUCUCCAUCCGUUGUUCUCACAACAGAGGAUUGAGCAUCA
B5: chr2:42328916:42329027:+|CDS|ENSG00000143924|unk|total|mutant (ssRNA)
RNA: GGGAGUUCUACAGUCCGACGAUCAGAAGGAUCUGAUGGGACAGAUAUCAAUGCACUGGUGCGAUCCCACAACCGAAAGGUGACCGCUGUUGCCGAUGACUUUUGUAAAGUCCAUCUGUUUCAGUAUCCCUGCUCCAAAGCAAACAACAGAGGAUUGAGCAUCA
B6: chr2:45005181:45006169:-|three_prime_utr|ENSG00000170577|control|control|control (ssRNA)
RNA: GGGAGUUCUACAGUCCGACGAUCCAGGGGCGCCCCGCCCCUGCGGCCCCACCAGGUACUGAAAGACCCGCAGGCUGAGCGGGUAGAACAGCCGGGUAGGGCAGAUAGCUGUCUAUGUUGGUUCUUGUUUGGGAUUUAUUUUCACAACAGAGGAUUGAGCAUCA
B7: chr6:132743869:132744491:-|three_prime_utr|ENSG00000112303|control|control|control (ssRNA)
RNA: GGGAGUUCUACAGUCCGACGAUCAUGUGGGACCAGCAAUUCAGCAAUAACUUACCUGCUAAUAUUCAUAUUAUUAAUGAUCAUAGCUUUGCAAAAUAUUGUAAUGUUAUAGGGCGUCUCUUUAUCACUCAGCUUCUGCAUCAUCAACAGAGGAUUGAGCAUCA
B8: chr1:46532996:46533527:-|CDS|ENSG00000282881|control|control|control (ssRNA)
RNA: GGGAGUUCUACAGUCCGACGAUCGUCGUGGGGCUGGCGCUGCUGGUGCUGGCGCUCGGCUUCUUCGCGGCCUGCUGCGUGUGUAGCCGCCGGGGCCUCGCGCCCCGUGGGCGCUCGGCGGCCGCGGCGGGCCCGGGCCAGGGUCAACAGAGGAUUGAGCAUCA
B9: chr1:153662446:153662560:-|CDS|ENSG00000143621|unk|total|mutant (ssRNA)
RNA: GGGAGUUCUACAGUCCGACGAUCAAUCACCUUUUUCUCUUUCCCCGAUCUUGCUUCUGAAAUAUCUACCUGGGAUGGAGUGACCGUAACACCUUCAGAAAAGGCUUAUGAGAAGCCACCAGAGAAGAAGGAAGGAGAGGAAGACAACAGAGGAUUGAGCAUCA
B10: ENSG00000107863:be:win_4301|CDS|ENSG00000107863|bound_else_gene|NA|bound_elsewhere_windowed (ssRNA)
RNA: GGGAGUUCUACAGUCCGACGAUCAAGAUGAACUGGACAAUGUAUUUUUUAAGAAAGAAAAUGUGGAACAGUGUCACAAUGAUACUAAAGAGGAGUCCAAAAAAGAAAGUGAGACACUGGGCAGAAAACAGAAGAUCAUCAUUGCAACAGAGGAUUGAGCAUCA
B11: chr10:121957106:121957207:-|3pUTR|ENSG00000107672|msi1|FALSE|bound_elsewhere (ssRNA)
RNA: GGGAGUUCUACAGUCCGACGAUCUGUAUCGUACAUAUUGUAUGAUUCAACAUUUUUAAAGGCAGAUUGUUUUUAGUAAAAUGUAGCUUUUGAUAGUUAAUAAAUUUGUCAUGGUUGUCUUUGAUUAAAGGAAACUCACCGCCACAACAGAGGAUUGAGCAUCA
B12: chr3:36528868:36528981:+|CDS|ENSG00000144681|unk|total|mutant (ssRNA)
RNA: GGGAGUUCUACAGUCCGACGAUCAGAAUUGGCUUCUUUCCAGCCAACUUUGUUCAGAGACUACAACAAAAUGAGAAGAUUUUCCGAUGUGUCCGAACCUUCAUUGGGUGUAAGGAACAGGGGCAGAUAACACUGAAAGAGAAUCAACAGAGGAUUGAGCAUCA
B13: chr15:66548596:66548706:+|3pUTR|ENSG00000174442|unk|FALSE|unique (ssRNA)
RNA: GGGAGUUCUACAGUCCGACGAUCUAGCAAGGGCUCUGAAAUGACAAAGAGAACGAGCACCACAAAUGAGAACAGGAUCAUUUUAGUAAAUACAGCUUUAUCCCAAAAGCUUUAACUGUAUUGGGAAAACUUAAAAAAUAGCAUCAACAGAGGAUUGAGCAUCA
B14: chr5:83943476:83943577:-|CDS|ENSG00000164176|msi1|FALSE|unique (ssRNA)
RNA: GGGAGUUCUACAGUCCGACGAUCAUAAAAAUAAUUUCAAAGAAAGAAGGCUGUGUGACUGACAUUUUUCUGCUCUUCUUUAUUAGGUUUUCCAGGGAAAUUUUGACAAUGACACUCACAGAAAAAAUGUCAUCGACCCUCCCACAACAGAGGAUUGAGCAUCA
B15: chr1:16057768:16058436:-|three_prime_utr|ENSG00000185519|control|control|control (ssRNA)
RNA: GGGAGUUCUACAGUCCGACGAUCGCAGCCCAGGCAUAUCUGGACCCCGGGGUCCAGGGCAGGGCAUCCCUUGACCCCUCGGGUAGGCACAGGGUAGGUGCGGCAGGGAUGGGGCCAGUGCUCAUGGUGGCCUCUCUGUGCCUCCAACAGAGGAUUGAGCAUCA
B16: chr2:128192036:128192329:+|3pUTR|ENSG00000136731|msi1|total|mutant (ssRNA)
RNA: GGGAGUUCUACAGUCCGACGAUCAUGUCCUGGUGUCACUCAUUGCCUCUUAUCUGUCGCCAUUCUAAUAUAAGUCAGCUUAACCGUUGACUCUGAAUAAUGCAAAACCCAGCUUGCUUCCAGAAUGGCCCCGGACCCUCCUCCCAACAGAGGAUUGAGCAUCA
B17: chr7:20413385:20413486:+|3pUTR|ENSG00000105855|msi1|FALSE|unique (ssRNA)
RNA: GGGAGUUCUACAGUCCGACGAUCACUGAAGAUAUCUUUAUGCAAGACAAGAGUCAGCCAUCAGACACUGAAAUAUAUUAUGAUAGAUUAUGAAGAAUUUUCUCUGUAGAAUUAUAUUCUUCCUGGAACCUGGUAGAGUAGAUUCAACAGAGGAUUGAGCAUCA
B18: chr1:31434308:31434366:+|3pUTR|ENSG00000168528|msi1_unk|total|mutant (ssRNA)
RNA: GGGAGUUCUACAGUCCGACGAUCGCCAGGCUGAGCCCCCACCCCUGCCCCAGCUCCAGGACCUGCCCCUGAGCCGGGCCUUCCCGUCGCCGUGCCUUCAGGGUCCGAGGAGCAUCAGGCUCCUGCAGAGCCCCAUCCCCCCGCCAACAGAGGAUUGAGCAUCA
B19: chr1:21217244:21217432:-|3pUTR|ENSG00000117298|msi1|FALSE|unique (ssRNA)
RNA: GGGAGUUCUACAGUCCGACGAUCCCGCUCCAGAGCUUUAAGGAAAAUGAAGUGAGACCCCUCCCCUUAGGCCUGGGGAGCCAUAGGGCUGGCUUCUCUGUGGGUGCGUGGACGUGGGGUUGGGAGCUGGGAAUCUAUUUUUUGCAACAGAGGAUUGAGCAUCA
B20: chr16:67657985:67658362:-|CDS|ENSG00000102977|control|control|control (ssRNA)
RNA: GGGAGUUCUACAGUCCGACGAUCUCCACACCAGGCUCUUGUGACCAGGCCCCAGAAACCUAGCCUGGAGUUCAAGGAGUUUGUAGGGUUGCCCUGCAAGAAUCGGCCGCCUUUUCCCAGGACCGGAGCUACCAGGGGAGCCCACAACAGAGGAUUGAGCAUCA
B21: chr17:29262523:29262623:-|3pUTR|ENSG00000108256|msi1_unk|total|mutant (ssRNA)
RNA: GGGAGUUCUACAGUCCGACGAUCACUUUGACUGAUAUUGUAAUUUUCAAAUGUAUAAUAUGUUUACAGAUGUGCCCUGCAUUCCGUCUGCCUUGUUCCUAUUUUGAUUUUUGUUGAGUCUCCUGCCUGCUUGCCAAAAGCCCGCAACAGAGGAUUGAGCAUCA
B22: chr1:10947665:10948844:-|CDS|ENSG00000175262|control|control|control (ssRNA)
RNA: GGGAGUUCUACAGUCCGACGAUCCCCCAGGGAGGGGGCCAGGGGGCACAUGGACCUUUCAUCCUCAGAACCAAGCCAGGACAUAGAGGGGCCGGGACUCUCCAUCCUGCCAGCGAGGGAUGCCACAUUCUCCACCCCAAGUGUCAACAGAGGAUUGAGCAUCA

Target: T1, UNK ZnF1-6 (called full-length)
Experiment: nsRBNS (natural sequence RNA bind-n-seq); RBNS binding buffer (assumed for nsRBNS): 25 mM Tris pH 7.5, 150 mM KCl, 3 mM MgCl2, 0.01% Triton X-100, 500 ug/ml BSA, 20 U/ml SUPERase-In, 4 C; UNK is unkempt and MSI1 is Musashi-1; names of the RNAs are library labels; protein concentration not given here; high values mean tight binding

| Binder | binding signal [enrichment R] |
| --- | --- |
| B1 | 0.584 |
| B2 | 0.665 |
| B3 | 10.6 |
| B4 | 2.42 |
| B5 | 0.381 |
| B6 | 0.596 |
| B7 | 0.744 |
| B8 | 4.09 |
| B9 | 0.586 |
| B10 | 0.566 |
| B11 | 13.5 |
| B12 | 0.401 |
| B13 | 7.95 |
| B14 | 0.757 |
| B15 | 0.721 |
| B16 | 0.55 |
| B17 | 0.976 |
| B18 | 1.36 |
| B19 | 0.922 |
| B20 | 0.613 |
| B21 | 0.542 |
| B22 | 0.995 |
